The supplement of paper PMC12297408
Where a name gives a salt, the structure may show the parent alone. Hit rate of the full screen: of about 1,300 compounds, about 40 (3%) showed activity. This is one part of the list.

Tested on: Plasmodium falciparum NF54/iGP1_RE9H ulg8 stage V gametocytes
Assay: gametocyte viability (luciferase signal relative to DMSO control) (% of DMSO control); higher = less gametocytocidal activity, active = 50 or less
Conditions: exposure time: 72 h
Method in brief: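 NF54/iGP1_RE9Hulg8 stage V gametocytes (day 12; ~2.5% gametocytemia, 3% hematocrit) in medium with 0.5% Albumax II were added to 96-well plates of nanolitre-spotted compounds (10 mM DMSO stocks), giving 10 µM or 1 µM, one well each. Plates were incubated 72 h at 37 °C. Then 90 µl was mixed with 10 µl D-luciferin (30 mg/ml) and luminescence was read on an IVIS Lumina II. Viability is relative to the mean of plate DMSO vehicle controls.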

Row | SMILES | gametocyte viability (concentration: 1 µM) | gametocyte viability (concentration: 10 µM)
1 | Cc1noc(NS(=O)(=O)c2ccc(N)cc2)c1C [Sulfisoxazole] | inactive: 92.3 | inactive: 94.4
2 | CC(Oc1c(Cl)cccc1Cl)C1=NCCN1 (stereo not drawn) [Lofexidine] | inactive: 92.5 | inactive: 90.5
3 | CC1=C(CC(=O)O)c2cc(F)ccc2/C1=C\c1ccc([S+](C)[O-])cc1 (stereo not drawn) [Sulindac] | inactive: 88.6 | inactive: 82.7
4 | Cc1ccccc1N1C(=O)c2cc(S(N)(=O)=O)c(Cl)cc2NC1C (stereo not drawn) [Metolazone] | inactive: 80.8 | inactive: 75.5
5 | Cc1cc(-n2c(=O)[nH]c(=O)n(C)c2=O)ccc1Oc1ccc(SC(F)(F)F)cc1 [Toltrazuril] | inactive: 86.4 | inactive: 84.2
6 | C=CC1=C(C(=O)O)N2C(=O)[C@@H](NC(=O)/C(=N\OCC(=O)O)c3csc(N)n3)[C@H]2SC1 [Cefixime] | inactive: 82.4 | inactive: 87.1
7 | OCCOCCN1CCN(C(c2ccccc2)c2ccc(Cl)cc2)CC1 (stereo not drawn) [Hydroxyzine dihydrochloride] | inactive: 88 | inactive: 86.4
8 | CC(=O)Nc1ccc(O)cc1 [Acetaminophen] | inactive: 85.7 | inactive: 83.1
9 | COc1ccc2[nH]c([S+]([O-])Cc3ncc(C)c(OC)c3C)nc2c1 (stereo not drawn) [Omeprazole] | inactive: 82.9 | inactive: 83.9
10 | OC(CCN1CCCCC1)(c1ccccc1)C1CCCCC1 (stereo not drawn) [Trihexyphenidyl-D,L Hydrochloride] | inactive: 90.7 | inactive: 94.9
11 | N=C(N)N/N=C/c1c(Cl)cccc1Cl [Guanabenz acetate] | inactive: 95.7 | inactive: 85
12 | Brc1c(NC2=NCCN2)ccc2nccnc12 [Brimonidine L-Tartrate] | inactive: 80.6 | inactive: 84.6
13 | CN(C)CCOC(=O)COc1ccc(Cl)cc1 [Meclofenoxate hydrochloride] | inactive: 82.6 | inactive: 88.4
14 | COc1ccc(C[C@@H]2c3cc(OC)c(OC)cc3CC[N@+]2(C)CCC(=O)OCCCCCOC(=O)CC[N@@+]2(C)CCc3cc(OC)c(OC)cc3[C@H]2Cc2ccc(OC)c(OC)c2)cc1OC [Cisatracurium besylate] | inactive: 96 | inactive: 92.6
15 | Nc1cc(-c2ccncc2)c[nH]c1=O [Amrinone] | inactive: 78.7 | inactive: 83.9
16 | CC(N)C12CC3CC(CC(C3)C1)C2 (stereo not drawn) [Rimantadine Hydrochloride] | inactive: 87.2 | inactive: 81.8
17 | CN(CCOc1ccc(CC2SC(=O)NC2=O)cc1)c1ccccn1 (stereo not drawn) [Rosiglitazone Hydrochloride] | inactive: 90.8 | inactive: 90.1
18 | CCC(=O)OCC(=O)[C@@]1(OC(=O)CC)[C@H](C)C[C@H]2[C@H]3[C@H]([C@@H](O)C[C@@]21C)[C@@]1(C)C=CC(=O)C=C1C[C@H]3Cl [Alclometasone dipropionate] | inactive: 83.6 | inactive: 78.3
19 | O=C1c2ccccc2S(=O)(=O)N1CCCCN1CCN(c2ncccn2)CC1 [Ipsapirone] | inactive: 95.5 | inactive: 97
20 | Cn1c([N+](=O)[O-])cnc1COC(N)=O [Ronidazole] | inactive: 89 | inactive: 86

Row | SMILES | gametocyte viability (concentration: 1 µM) | gametocyte viability (concentration: 10 µM)
21 | CC(Oc1ccccc1)C(=O)N[C@@H]1C(=O)N2[C@@H]1SC(C)(C)[C@@H]2C(=O)O (stereo partly drawn) [Phenethicillin potassium salt] | inactive: 91.7 | inactive: 90.9
22 | N[C@@H](C(=O)N[C@@H]1C(=O)N2C(C(=O)O)=C(Cl)CS[C@H]12)c1ccccc1 [Cefaclor hydrate] | inactive: 83.7 | inactive: 80.5
23 | COc1ccc(C(=O)NCc2ccc(OCCN(C)C)cc2)cc1OC [Itopride] | inactive: 92.2 | inactive: 86.8
24 | C[C@@H]1NC(=O)NC1=O [Methylhydantoin-5-(L)] | inactive: 98.3 | inactive: 99.7
25 | CN1CCN(C2=Nc3cc(Cl)ccc3Nc3ccccc32)CC1 [Clozapine] | inactive: 79.8 | inactive: 79
26 | Cc1cc(=O)n(-c2ccccc2)n1C [Antipyrine] | inactive: 101 | inactive: 95.5
27 | Clc1ccc(COC(Cn2ccnc2)c2ccc(Cl)cc2Cl)c(Cl)c1 (stereo not drawn) [Miconazole] | inactive: 88.3 | inactive: 87.8
28 | NC12CC3CC(CC(C3)C1)C2 [Adamantamine fumarate] | inactive: 85.3 | inactive: 82.4
29 | Cc1ccc(-c2ncc(Cl)cc2-c2ccc(S(C)(=O)=O)cc2)cn1 [Etoricoxib] | inactive: 100 | inactive: 87.6
30 | CC1CCc2c(N3CCC(O)CC3)c(F)cc3c(=O)c(C(=O)O)cn1c23 (stereo not drawn) [Nadifloxacin] | inactive: 85.2 | inactive: 81.3
31 | CC(=O)N(O)CCCCCNC(=O)CCC(=O)N(O)CCCCCNC(=O)CCC(=O)N(O)CCCCCN [Deferoxamine mesylate] | inactive: 90.6 | inactive: 82.7
32 | CCN[C@H]1C[C@H](C)S(=O)(=O)c2sc(S(N)(=O)=O)cc21 [Dorzolamide hydrochloride] | inactive: 80.2 | inactive: 87.2
33 | CC(C)/N=c1\cc2n(-c3ccc(Cl)cc3)c3ccccc3nc-2cc1Nc1ccc(Cl)cc1 [Clofazimine] | inactive: 89.3 | inactive: 97.6
34 | O=C1Cc2cc(CCN3CCN(c4nsc5ccccc45)CC3)c(Cl)cc2N1 [Ziprasidone  Hydrochloride] | inactive: 82.9 | inactive: 71.6
35 | O=c1cc(-c2ccc(O)c(O)c2)oc2cc(O)cc(O)c12 [Luteolin] | inactive: 81.1 | inactive: 73.3
36 | CC(C)(C(=O)c1cccnc1)c1cccnc1 [Metyrapone] | inactive: 86.8 | inactive: 76.4
37 | CN(C)c1ccc(O)c2c1C[C@H]1C[C@H]3[C@H](N(C)C)C(=O)C(C(N)=O)=C(O)[C@@]3(O)C(=O)C1=C2O [Minocycline hydrochloride] | inactive: 83.1 | inactive: 83.3
38 | CN1CCc2cccc3c2[C@H]1Cc1ccc(O)c(O)c1-3 [R(-) Apomorphine hydrochloride hemihydrate] | inactive: 85.5 | inactive: 86.9
39 | CCC(NC(C)C)C(O)c1ccc(O)c(O)c1 (stereo not drawn) [Isoetharine mesylate salt] | inactive: 82.4 | inactive: 84.1
40 | CCC(Cc1c(I)cc(I)c(N)c1I)C(=O)O (stereo not drawn) [Iopanoic acid] | inactive: 87 | inactive: 85.7

Row | SMILES | gametocyte viability (concentration: 1 µM) | gametocyte viability (concentration: 10 µM)
41 | CO[C@@]1(NC(=O)CSCC#N)C(=O)N2C(C(=O)O)=C(CSc3nnnn3C)CS[C@@H]21 [Cefmetazole sodium salt] | inactive: 94.1 | inactive: 88.9
42 | CC(C)NC[C@H](O)COc1ccc(CC(N)=O)cc1 [(S)-(-)-Atenolol] | inactive: 89.7 | inactive: 92.6
43 | CCOC(=O)C(C)(C)Oc1ccc(Cl)cc1 [Clofibrate] | inactive: 98.6 | inactive: 102
44 | CN1CCC(=C2c3ccccc3CC(=O)c3sccc32)CC1 [Ketotifen fumarate] | inactive: 79.5 | inactive: 84.2
45 | COc1ccccc1N1CCN(CC(O)COc2cccc3ccccc23)CC1 (stereo not drawn) [Naftopidil dihydrochloride] | inactive: 90.8 | inactive: 83.2
46 | CN1CCCC(CC2c3ccccc3Sc3ccccc32)C1 (stereo not drawn) [Metixene hydrochloride] | inactive: 94.4 | inactive: 78.9
47 | CCN1C(=O)NC(c2ccccc2)C1=O (stereo not drawn) [Ethotoin] | inactive: 94 | inactive: 83.9
48 | CCCN(CCC)C(=O)C(CCC(=O)O)NC(=O)c1ccccc1 (stereo not drawn) [Proglumide] | inactive: 85.7 | inactive: 84.5
49 | COc1ccc2c(c1)N(C[C@H](C)CN(C)C)c1ccccc1S2 [Methotrimeprazine maleat salt] | inactive: 96.9 | inactive: 89.7
50 | N#CC(c1ccc(Cl)cc1)c1c(Cl)cc(-n2ncc(=O)[nH]c2=O)cc1Cl (stereo not drawn) [Diclazuril] | inactive: 92.9 | inactive: 91.4
51 | COc1cc(OC)c(C(=O)CCCN2CCCC2)c(OC)c1 [Buflomedil hydrochloride] | inactive: 83.9 | inactive: 85.2
52 | Cn1ccnc1S [Methimazole] | inactive: 88 | inactive: 81.6
53 | Nc1c(Br)cc(Br)cc1CN[C@H]1CC[C@H](O)CC1 [Ambroxol hydrochloride] | inactive: 83.3 | inactive: 89.8
54 | CC(C)(Sc1cc(C(C)(C)C)c(O)c(C(C)(C)C)c1)Sc1cc(C(C)(C)C)c(O)c(C(C)(C)C)c1 [Probucol] | inactive: 84.2 | inactive: 85.2
55 | CN(C)CC/C=C1\c2ccccc2CSc2ccccc21 [Dosulepin hydrochloride] | inactive: 88 | inactive: 82.9
56 | CC(C)(Oc1ccc(Cl)cc1)C(=O)O [Clofibric acid] | inactive: 93 | inactive: 93.1
57 | CO[C@H]1C[C@H](O[C@H]2[C@H](C)[C@@H](O[C@@H]3O[C@H](C)C[C@H](N(C)C)[C@H]3OC(C)=O)[C@@H](C)C[C@@]3(CO3)C(=O)[C@H](C)[C@@H](OC(C)=O)[C@@H](C)[C@@H](C)OC(=O)[C@@H]2C)O[C@@H](C)[C@@H]1OC(C)=O [Troleandomycin] | inactive: 83.6 | inactive: 88.8
58 | COc1ccc(-c2ccc(=N)n(CCCC(=O)O)n2)cc1 [Gabazine bromide] | inactive: 81.2 | inactive: 82.5
59 | Cc1cc(C(=O)NNCc2ccccc2)no1 [Isocarboxazid] | inactive: 98.7 | inactive: 85
